B1: NFE2L1 peptide 226-241 (Endoplasmic reticulum membrane sensor NFE2L1), 16-mer library wild type / KEAP1 KELCH (KEAP1 6 Kelch repeats, […]) (parent complex)
chain 1: RNLLVDGETGESFPAQ
chain 2: not shown

Variants of: B1
Experiment: proteomic peptide phage display deep mutational scan (ProP-PD DMS): M13 P8 16-mer library selected against immobilised GST-tagged bait for four days (rounds), NGS of the eluted pools per day and pseudo-replica; bait immobilised on MaxiSorp plates (10 µg), library pre-cleared on GST, 2 h binding at 4 °C, five washes; one round per day, days 1-4; value from days 2 and 3

Variant	screen value
chain 1 E11H	0.000503 average fractional NGS count over selection days 2 and 3 (reads of this peptide / all reads for the bait, averaged over …
chain 1 E11Q	0.00189 average fractional NGS count over selection days 2 and 3 (reads of this peptide / all reads for the bait, averaged over …
chain 1 E11T	0.000515 average fractional NGS count over selection days 2 and 3 (reads of this peptide / all reads for the bait, averaged over …
chain 1 E11V	0.000298 average fractional NGS count over selection days 2 and 3 (reads of this peptide / all reads for the bait, averaged over …
chain 1 E11M	0.000506 average fractional NGS count over selection days 2 and 3 (reads of this peptide / all reads for the bait, averaged over …
chain 1 E11I	0.00272 average fractional NGS count over selection days 2 and 3 (reads of this peptide / all reads for the bait, averaged over …
chain 1 N2G	0.00103 average fractional NGS count over selection days 2 and 3 (reads of this peptide / all reads for the bait, averaged over …
chain 1 N2F	0.00201 average fractional NGS count over selection days 2 and 3 (reads of this peptide / all reads for the bait, averaged over …
chain 1 N2I	0.00124 average fractional NGS count over selection days 2 and 3 (reads of this peptide / all reads for the bait, averaged over …
chain 1 N2V	0.00151 average fractional NGS count over selection days 2 and 3 (reads of this peptide / all reads for the bait, averaged over …
chain 1 N2S	0.000302 average fractional NGS count over selection days 2 and 3 (reads of this peptide / all reads for the bait, averaged over …
chain 1 N2Q	0.000145 average fractional NGS count over selection days 2 and 3 (reads of this peptide / all reads for the bait, averaged over …
chain 1 N2K	0.0015 average fractional NGS count over selection days 2 and 3 (reads of this peptide / all reads for the bait, averaged over …
chain 1 N2M	0.000193 average fractional NGS count over selection days 2 and 3 (reads of this peptide / all reads for the bait, averaged over …
chain 1 N2H	0.00048 average fractional NGS count over selection days 2 and 3 (reads of this peptide / all reads for the bait, averaged over …
chain 1 N2A	0.000403 average fractional NGS count over selection days 2 and 3 (reads of this peptide / all reads for the bait, averaged over …
chain 1 N2R	0.00144 average fractional NGS count over selection days 2 and 3 (reads of this peptide / all reads for the bait, averaged over …
chain 1 N2W	0.00351 average fractional NGS count over selection days 2 and 3 (reads of this peptide / all reads for the bait, averaged over …
chain 1 N2L	0.00329 average fractional NGS count over selection days 2 and 3 (reads of this peptide / all reads for the bait, averaged over …
chain 1 N2Y	0.000201 average fractional NGS count over selection days 2 and 3 (reads of this peptide / all reads for the bait, averaged over …
chain 1 N2T	0.000491 average fractional NGS count over selection days 2 and 3 (reads of this peptide / all reads for the bait, averaged over …
chain 1 N2E	0.000269 average fractional NGS count over selection days 2 and 3 (reads of this peptide / all reads for the bait, averaged over …
chain 1 L3A	0.000703 average fractional NGS count over selection days 2 and 3 (reads of this peptide / all reads for the bait, averaged over …
chain 1 L3H	0.00258 average fractional NGS count over selection days 2 and 3 (reads of this peptide / all reads for the bait, averaged over …
chain 1 L3V	0.000155 average fractional NGS count over selection days 2 and 3 (reads of this peptide / all reads for the bait, averaged over …

Variant	screen value
chain 1 L3T	0.000316 average fractional NGS count over selection days 2 and 3 (reads of this peptide / all reads for the bait, averaged over …
chain 1 L3K	0.000404 average fractional NGS count over selection days 2 and 3 (reads of this peptide / all reads for the bait, averaged over …
chain 1 L3D	0.000942 average fractional NGS count over selection days 2 and 3 (reads of this peptide / all reads for the bait, averaged over …
chain 1 L3I	0.000141 average fractional NGS count over selection days 2 and 3 (reads of this peptide / all reads for the bait, averaged over …
chain 1 L3G	0.000706 average fractional NGS count over selection days 2 and 3 (reads of this peptide / all reads for the bait, averaged over …
chain 1 L3Q	0.00206 average fractional NGS count over selection days 2 and 3 (reads of this peptide / all reads for the bait, averaged over …
chain 1 L3S	0.00105 average fractional NGS count over selection days 2 and 3 (reads of this peptide / all reads for the bait, averaged over …
chain 1 L3E	0.00523 average fractional NGS count over selection days 2 and 3 (reads of this peptide / all reads for the bait, averaged over …
chain 1 L3W	0.000758 average fractional NGS count over selection days 2 and 3 (reads of this peptide / all reads for the bait, averaged over …
chain 1 L3M	0.00994 average fractional NGS count over selection days 2 and 3 (reads of this peptide / all reads for the bait, averaged over …
chain 1 E8N	0.000163 average fractional NGS count over selection days 2 and 3 (reads of this peptide / all reads for the bait, averaged over …
chain 1 E8T	0.000832 average fractional NGS count over selection days 2 and 3 (reads of this peptide / all reads for the bait, averaged over …
chain 1 E8D	0.000913 average fractional NGS count over selection days 2 and 3 (reads of this peptide / all reads for the bait, averaged over …
chain 1 E8A	0.000233 average fractional NGS count over selection days 2 and 3 (reads of this peptide / all reads for the bait, averaged over …
chain 1 E8M	0.000538 average fractional NGS count over selection days 2 and 3 (reads of this peptide / all reads for the bait, averaged over …
chain 1 E8V	0.00531 average fractional NGS count over selection days 2 and 3 (reads of this peptide / all reads for the bait, averaged over …
chain 1 E8G	0.0476 average fractional NGS count over selection days 2 and 3 (reads of this peptide / all reads for the bait, averaged over …
chain 1 E8S	0.0098 average fractional NGS count over selection days 2 and 3 (reads of this peptide / all reads for the bait, averaged over …
chain 1 D6Y	0.000835 average fractional NGS count over selection days 2 and 3 (reads of this peptide / all reads for the bait, averaged over …
chain 1 D6H	0.0427 average fractional NGS count over selection days 2 and 3 (reads of this peptide / all reads for the bait, averaged over …
chain 1 D6N	0.00145 average fractional NGS count over selection days 2 and 3 (reads of this peptide / all reads for the bait, averaged over …
chain 1 D6I	0.000578 average fractional NGS count over selection days 2 and 3 (reads of this peptide / all reads for the bait, averaged over …
chain 1 D6M	0.000129 average fractional NGS count over selection days 2 and 3 (reads of this peptide / all reads for the bait, averaged over …
chain 1 D6F	0.000181 average fractional NGS count over selection days 2 and 3 (reads of this peptide / all reads for the bait, averaged over …
chain 1 D6S	0.00307 average fractional NGS count over selection days 2 and 3 (reads of this peptide / all reads for the bait, averaged over …

Variant	screen value
chain 1 D6L	0.000213 average fractional NGS count over selection days 2 and 3 (reads of this peptide / all reads for the bait, averaged over …
chain 1 D6V	0.000263 average fractional NGS count over selection days 2 and 3 (reads of this peptide / all reads for the bait, averaged over …
chain 1 D6Q	0.00147 average fractional NGS count over selection days 2 and 3 (reads of this peptide / all reads for the bait, averaged over …
chain 1 D6A	0.000331 average fractional NGS count over selection days 2 and 3 (reads of this peptide / all reads for the bait, averaged over …
chain 1 Q16K	0.00058 average fractional NGS count over selection days 2 and 3 (reads of this peptide / all reads for the bait, averaged over …
chain 1 Q16N	0.000263 average fractional NGS count over selection days 2 and 3 (reads of this peptide / all reads for the bait, averaged over …
chain 1 Q16G	0.00024 average fractional NGS count over selection days 2 and 3 (reads of this peptide / all reads for the bait, averaged over …
chain 1 Q16L	0.000141 average fractional NGS count over selection days 2 and 3 (reads of this peptide / all reads for the bait, averaged over …
chain 1 Q16M	0.000404 average fractional NGS count over selection days 2 and 3 (reads of this peptide / all reads for the bait, averaged over …
chain 1 Q16T	0.00032 average fractional NGS count over selection days 2 and 3 (reads of this peptide / all reads for the bait, averaged over …
chain 1 Q16I	0.000157 average fractional NGS count over selection days 2 and 3 (reads of this peptide / all reads for the bait, averaged over …
chain 1 Q16V	0.00235 average fractional NGS count over selection days 2 and 3 (reads of this peptide / all reads for the bait, averaged over …
chain 1 Q16P	0.000232 average fractional NGS count over selection days 2 and 3 (reads of this peptide / all reads for the bait, averaged over …
chain 1 Q16F	0.00184 average fractional NGS count over selection days 2 and 3 (reads of this peptide / all reads for the bait, averaged over …
chain 1 Q16Y	0.00181 average fractional NGS count over selection days 2 and 3 (reads of this peptide / all reads for the bait, averaged over …
chain 1 Q16W	0.000264 average fractional NGS count over selection days 2 and 3 (reads of this peptide / all reads for the bait, averaged over …
chain 1 Q16H	0.00105 average fractional NGS count over selection days 2 and 3 (reads of this peptide / all reads for the bait, averaged over …
chain 1 Q16A	0.000163 average fractional NGS count over selection days 2 and 3 (reads of this peptide / all reads for the bait, averaged over …
chain 1 Q16E	0.000148 average fractional NGS count over selection days 2 and 3 (reads of this peptide / all reads for the bait, averaged over …
chain 1 L4K	0.000235 average fractional NGS count over selection days 2 and 3 (reads of this peptide / all reads for the bait, averaged over …
chain 1 L4H	0.000811 average fractional NGS count over selection days 2 and 3 (reads of this peptide / all reads for the bait, averaged over …
chain 1 L4Q	0.00122 average fractional NGS count over selection days 2 and 3 (reads of this peptide / all reads for the bait, averaged over …
chain 1 L4M	0.000325 average fractional NGS count over selection days 2 and 3 (reads of this peptide / all reads for the bait, averaged over …
chain 1 L4A	0.000567 average fractional NGS count over selection days 2 and 3 (reads of this peptide / all reads for the bait, averaged over …
chain 1 L4E	0.000181 average fractional NGS count over selection days 2 and 3 (reads of this peptide / all reads for the bait, averaged over …

From article PMC12102759 (2025)
